{"source": "PubChem BioAssay AID1347417", "about": "(National Center for Advancing Translational Sciences (NCATS), 2020)", "note": "Screen size: about 120,000 compounds; about 5,300 (4.4%) were called active. This list was built around the results that the source calls inconclusive (neither active nor inactive); the mix of calls is not that of the screen. Calls come from the whole dose curve; as a rule, active = well fitted inhibition curve with a large enough effect; inconclusive = small, poorly fitted or top-dose-only effect; inactive = no such curve, though single readings can be large or run the other way. Potencies of inconclusive entries are doubtful fits and often do not repeat. Potency is the fitted concentration of half-maximal effect; tags give direction and shape of the fitted curve."}
{"test": "qHTS Primary assay for Inhibitors of Plasmodium falciparum Dd2 growth in vitro; note: nearly all actives have a fitted effect of over 65% in size;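 for activity, negative = inhibition: plate controls were DMSO vehicle for no effect and reference drug for full effect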", "conditions": "P. falciparum Dd2 growth, SYBR Green, 72 h; activity, negative = inhibition: at 28.9 µM (top of the series) unless noted; series mostly up to 28.9 µM", "in_short": "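Readout: SYBR Green fluorescence, 485 nm excitation, 535 nm emission, after ~16 h lysis at 37C. Before that, Dd2-infected red cells (2.5% hematocrit) grew 72 h with compound, 29 uM top final concentration.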"}
{"smiles": "CC(C)[C@@H](N)C(=O)N1CCC(n2nccc2NC(=O)c2ccccc2)CC1", "activity, negative = inhibition": "inactive: -2.82%"}
{"smiles": "COCCNC(=O)C1CCN(Cc2cc3ccccc3n2Cc2ccc(C)cc2)CC1", "Potency": "inconclusive: 11.2 µM [inhibitor, single point]"}
{"smiles": "CCN1C(=O)C2CC3(CCN(C4CCOCC4)CC3)CN2C1=O", "note": "(centres undefined)", "activity, negative = inhibition": "inactive: -2.72%"}
{"smiles": "COCCN1CCCCCC(O)c2cc(C(=O)NCCc3ccccc3)ccc21", "note": "(centres undefined)", "Potency": "inconclusive: 1.12 µM [inhibitor, full curve, poor fit]"}
{"smiles": "CCOc1ccccc1NC(=O)Cn1c(=O)n(-c2ccc(F)cc2)c(=O)c2c1cc(C)n2C", "activity, negative = inhibition": "inactive: 0.471%"}
{"smiles": "Cc1ccc(C(=O)N2CCN(C(=O)c3nnn4c3COC(c3ccc(C)cc3)C4)CC2)cc1", "note": "(centres undefined)", "Potency": "inconclusive: 3.98 µM [inhibitor, single point]"}
{"smiles": "Cc1ccc(C(=O)c2sc(Nc3ccccc3)c(S(=O)(=O)c3ccccc3)c2N)c(C)c1", "Potency": "inconclusive: 7.94 µM [inhibitor, single point]"}
{"smiles": "COc1cccc(N2C(=O)NC(=NC3CCCC3)C23CCN(CCC(C)C)C3)c1", "note": "(centres undefined)", "Potency": "inconclusive: 11.2 µM [inhibitor, single point]"}
{"smiles": "CCCC(=O)N1CCn2c(nnc2[C@@H]2C[C@@H](O)CN2Cc2ccccc2)C1", "Potency": "inconclusive: 0.251 µM [inhibitor, full curve, poor fit]"}
{"smiles": "CC(C)(C)OC(=O)N1CC(NCc2cccc(F)c2)C1", "Potency": "inconclusive: 12.6 µM [inhibitor, partial curve, poor fit]"}
{"smiles": "O=C1N2CCCC2CN1C1CCN(Cc2ccccn2)CC1", "note": "(centres undefined)", "activity, negative = inhibition": "inactive: -16.4% [at 44.1 µM]"}
{"smiles": "CCOCCOC1CCN(C(=O)c2ccc(OC)cc2)CC1", "activity, negative = inhibition": "inactive: 29%"}
{"smiles": "C[S+](=O)([O-])N1Cc2ccccc2CC2(CCN(CCc3ccccc3)C2)C1", "note": "(centres undefined)", "Potency": "inconclusive: 4.47 µM [inhibitor, partial curve, poor fit]"}
{"smiles": "CC(C)c1ccc(OCC(=O)c2ccc3c(c2)N(CCCC(=O)N2CCOCC2)C(=O)CO3)cc1", "Potency": "active: 12.6 µM"}
{"smiles": "CC[C@H]1CN2CC[C@H]1C[C@@H]2CNC(=O)COc1ccccc1", "Potency": "inconclusive: 20 µM [inhibitor, partial curve, poor fit]"}
{"smiles": "CC(NC(=O)c1cc(-c2ccc(F)cc2)cn1C)c1ccccn1", "note": "(centres undefined)", "outcome": "inactive"}
{"smiles": "CNC(=O)CCn1ncc2cc(OC3CCc4cccc(-c5ccnc(OC)c5)c43)ccc21", "note": "(centres undefined)", "activity, negative = inhibition": "inactive: -7%"}
{"smiles": "O=C(NC[C@H]1O[C@@H](CO)[C@@H](O)[C@H]1N1CCN(c2ccccc2)CC1)c1cccs1", "Potency": "inconclusive: 31.6 µM [inhibitor, single point]"}
{"smiles": "O=C1NCN(Cc2ccc(Cl)cc2)C12CCN(CC1CC1)CC2", "Potency": "inconclusive: 2 µM [inhibitor, full curve, poor fit]"}
{"smiles": "CCSc1nc(CC(=O)NCc2ccc(S(N)(=O)=O)cc2)cs1", "Potency": "inconclusive: 0.447 µM [inhibitor, full curve, poor fit]"}
{"smiles": "O=C(CCc1nc2ccccc2s1)N1CCC(N2CC3CC(C2)[C@H]2CCCC(=O)N2C3)CC1", "note": "(some centres undefined)", "activity, negative = inhibition": "inactive: -25.7%"}
{"smiles": "COc1ccc(N2CCN(c3nc(C(=O)NCc4ccc(C)c(C)c4)cs3)CC2)cc1", "Potency": "inconclusive: 8.91 µM [inhibitor, partial curve, poor fit]"}
{"smiles": "Cc1cccc(C(=O)N2CCC(OC3CCN(Cc4ccccc4)CC3)CC2)c1", "Potency": "active: 3.98 µM"}
{"smiles": "COc1ccc(C(=O)/C=C/c2cn(CC(O)CN3CCc4ccccc43)c3ccccc23)cc1OC", "note": "(centres undefined)", "Potency": "active: 8.91 µM"}
{"smiles": "CC(C)N1CCN(C(=O)c2cc3n(n2)CC(c2ccc(Br)cc2)OC3)CC1", "note": "(centres undefined)", "outcome": "inactive"}
{"smiles": "CCOc1ccccc1C1NC(=O)N(CC(=O)Nc2ccc(OC)c(Cl)c2)C2=C1C(=O)OC2", "note": "(centres undefined)", "Potency": "inconclusive: 1.41 µM [inhibitor, partial curve, poor fit]"}
{"smiles": "CN1CC2(CCN(Cc3cccn3C)CC2)CC1C(=O)N1CCOCC1", "note": "(centres undefined)", "activity, negative = inhibition": "inactive: -26.1%"}
{"smiles": "CCC(C(=O)NCCn1ccn2nc(-c3ccc(OC)cc3)cc2c1=O)c1ccccc1", "note": "(centres undefined)", "Potency": "inconclusive: 1.58 µM [inhibitor, full curve]"}
{"smiles": "Cn1ccnc1C(=O)N1CCCN(S(C)(=O)=O)C(c2ccccc2)CC(=O)NCC1", "note": "(centres undefined)", "outcome": "inactive"}
{"smiles": "CC(C)CNC(=O)C1CCc2sc(C(=O)N3CCCCCC3)cc2C1", "note": "(centres undefined)", "Potency": "inconclusive: 7.94 µM [inhibitor, partial curve, poor fit]"}
{"smiles": "Cc1ccc(NC(=O)C2CCCN(S(=O)(=O)c3c(C)n[nH]c3C)C2)c(C)c1", "note": "(centres undefined)", "Potency": "inconclusive: 20 µM [inhibitor, single point]"}
{"smiles": "Cc1ccc(CN[C@@H]2CO[C@H](CNC(=O)c3cccs3)[C@H]2O)cc1", "outcome": "inactive [at 44.1 µM]"}
{"smiles": "O=C(NCc1cccc(F)c1)[C@@H]1C[C@@H](c2ccc(F)cc2)N([S+](=O)([O-])c2ccccc2)C1", "outcome": "inactive"}
{"smiles": "Cc1ccc(-n2ncc3c(NCCCN4CCOCC4)ncnc32)cc1C", "Potency": "inconclusive: 17.8 µM [inhibitor, single point]"}
{"smiles": "CN(C)Cc1nnc(C2CCN(C(=O)CCCn3cncn3)CC2)n1C", "activity, negative = inhibition": "inactive: -12.6%"}
{"smiles": "CN(c1cc(=O)c2ccnc(Nc3ccc(F)c(Cl)c3)c2o1)C1CCOCC1", "activity, negative = inhibition": "inactive: -16% [at 44.1 µM]"}
{"smiles": "CCOC(=O)c1ccc(NC(=O)CCCn2c(=O)c3cccn3c3ccccc32)cc1", "Potency": "inconclusive: 14.1 µM [inhibitor, partial curve, poor fit]"}
{"smiles": "Cc1ccccc1Nc1c(-c2c(F)cccc2Cl)nc2ccc(Br)cn12", "Potency": "active: 10 µM"}
{"smiles": "Cc1c(C(=O)Nc2cccc(C(F)(F)F)c2)sc2nc[nH]c(=O)c12", "activity, negative = inhibition": "inactive: -7.77%"}
{"smiles": "Cc1ccc(CN2CCC3(CC2)CC(=O)N(c2ccccc2)c2ccccc2O3)cc1", "outcome": "inactive"}
{"smiles": "CC1=C(C(=O)OC(C)C)C(c2ccccc2C)N2C(CC(=O)NCC3CC3)=CSC2=N1", "note": "(centres undefined)", "Potency": "inconclusive: 6.31 µM [inhibitor, partial curve]"}
{"smiles": "O=C(NCC(=O)N1CCN(c2ccccn2)CC1)c1cc2ccccc2[nH]1", "Potency": "inconclusive: 8.91 µM [inhibitor, single point]"}
{"smiles": "O=C(C1CCN(C(=O)N2CC3CC(C2)[C@H]2CCCC(=O)N2C3)CC1)N1CC=C(c2ccccc2)CC1", "note": "(some centres undefined)", "outcome": "inactive"}
{"smiles": "COc1ccc(CCNC(=O)c2ccc3c(c2)N(Cc2ccc(F)cc2)C(=O)c2ccccc2S3(=O)=O)cc1OC", "Potency": "inconclusive: 17.8 µM [inhibitor, single point]"}
{"smiles": "O=C1NCc2ccccc2CC12CCN(Cc1ccc(-c3ccccc3)cc1)CC2", "Potency": "inconclusive: 11.2 µM [inhibitor, single point]"}
{"smiles": "Cc1nc(-c2ccc(F)cc2)n(Cc2cccc(C#N)c2)c(=O)c1CCO", "Potency": "inconclusive: 17.8 µM [inhibitor, single point]"}
{"smiles": "O=C(c1ccc2c(c1)OCO2)N1CCC(c2n[nH]c(=O)n2-c2ccccc2)CC1", "Potency": "inconclusive: 17.8 µM [inhibitor, single point]"}
{"smiles": "Cc1ccc(C(=O)N2CCN(c3nnc4ccccn34)CC2)cc1", "activity, negative = inhibition": "inactive: -13.8%"}
{"smiles": "CCOc1cc(C(=O)N2CCN(c3cc(-c4ccc(F)cc4)[nH]n3)CC2)cc(OCC)c1OCC", "Potency": "inconclusive: 11.2 µM [inhibitor, single point]"}
{"smiles": "C=C[C@H]1CN2CC[C@H]1C[C@@H]2CNS(=O)(=O)c1ccc2ccccc2c1", "Potency": "inconclusive: 0.199 µM [inhibitor, partial curve, poor fit]"}
{"smiles": "COc1ccc(CNC(=O)C[C@@H]2CCNC[C@@H]2Cc2cc(CC3CCCCC3)on2)cc1", "Potency": "active: 11.2 µM"}
{"smiles": "O=C(NC1CCOC2(CCOCC2)C1)c1csc(Cc2ccccc2)n1", "note": "(centres undefined)", "activity, negative = inhibition": "inactive: 8.01%"}
{"smiles": "O=C(c1ccc(F)cc1)c1cn(Cc2ccccc2)c2cc3c(cc2c1=O)OCO3", "Potency": "inconclusive: 11.2 µM [inhibitor, single point]"}
{"smiles": "COc1ccc(C(=O)N2[C@@H]3CC[C@H]2CC(NC(=O)c2ccc(F)cc2)C3)c(OC)c1", "note": "(some centres undefined)", "activity, negative = inhibition": "inactive: -16.9%"}
{"smiles": "COCCOC1CN(C2CCN(S(C)(=O)=O)CC2)C12CCCCC2", "note": "(centres undefined)", "Potency": "inconclusive: 17.8 µM [inhibitor, single point]"}
{"smiles": "COc1ccc(NC(=O)c2cc3ccccc3o2)c(OC)c1", "Potency": "inconclusive: 11.2 µM [inhibitor, partial curve, poor fit]"}
{"smiles": "COC[C@@H]1CN(S(C)(=O)=O)C[C@H]1C(=O)N(C)C", "activity, negative = inhibition": "inactive: 18.8%"}
{"smiles": "CC(C)N1C(=O)C2(CCCC2)C1C(=O)NCc1ccc(N2CCOCC2)cc1", "note": "(centres undefined)", "activity, negative = inhibition": "inactive: 5.54%"}
{"smiles": "CC(C)CC(=O)N1CCCCCNC(=O)CC1c1ccccc1", "note": "(centres undefined)", "activity, negative = inhibition": "inactive: -13.9%"}
{"smiles": "COC(=O)c1ccc(C2Nc3c(C)cccc3-c3cc(C)nn32)cc1", "note": "(centres undefined)", "Potency": "active: 0.447 µM"}
{"smiles": "COc1ccccc1CNc1nc2c(S(=O)(=O)c3ccc(C)c(C)c3)nnn2c2ccc(Cl)cc12", "Potency": "inconclusive: 3.98 µM [inhibitor, partial curve, poor fit]"}
{"smiles": "CC(C)C1=NOC2(CCN(C(=O)c3ccccc3)C2)C1", "note": "(centres undefined)", "activity, negative = inhibition": "inconclusive: -37.3% [inhibitor] [at 44.1 µM]"}
{"smiles": "CSc1cccc(NC(=O)C2CCN(c3cnc4nc(C)c(C)nc4c3)CC2)c1", "Potency": "inconclusive: 1.41 µM [inhibitor, partial curve, poor fit]"}
{"smiles": "O=C(NCc1ccco1)[C@@H]1Cc2nc[nH]c2CN1CCCc1ccccc1", "Potency": "active: 7.94 µM"}
{"smiles": "O=c1c2nc(Nc3cccnc3)ccc2ncn1-c1ccccc1", "activity, negative = inhibition": "inactive: -23% [at 44.1 µM]"}
{"smiles": "COCC1CN(C)CC12CCN(C(=O)c1cccc(Br)c1)CC2", "note": "(centres undefined)", "Potency": "inconclusive: 11.2 µM [inhibitor, single point]"}
{"smiles": "COCCOC1CCOC2(CCN(C(=O)c3nn(C)c4ccccc34)CC2)C1", "note": "(centres undefined)", "Potency": "active: 5.62 µM"}
{"smiles": "O=C(c1ccc(N2CC3CC(C2)[C@H]2CCCC(=O)N2C3)nc1)N1CCC(Cc2ccccc2)CC1", "note": "(some centres undefined)", "Potency": "inconclusive: 1.78 µM [inhibitor, full curve]"}
{"smiles": "CCS(=O)(=O)Nc1ccc(C2(C(=O)NCc3ccc4c(c3)OCO4)CCCCC2)cc1", "Potency": "active: 11.2 µM"}
